# Measured values: patent EP2386565A2, “Compounds and methods to inhibit or augment an inflammatory response” (Cambridge Enterprise Ltd., priority 1999, dated 2000)
# Part of at least one peptide drawing is inferred or uncertain, most often the ends. Some compounds share one wording; it may come from a single statement. Positions of bridges follow the written chain, without caps; N, C: chain ends. Non-standard residues stand in square brackets, D forms with d. Residues, ends and D or L forms follow the SMILES beside them. No end group written: not given here.
# Legend:
# Assay type in all cases: cell-based, human
# [1] = test system: MCP-1 induced THP-1 migration; test: THP-1 trans-well migration assay, MCP-1 as chemoattractant; conditions: for ED50 (µM) versus MCP-1: inhibition of THP-1 migration, n.s./ns = not statistically significant
# Protocol: (§1) To determine whether an agent inhibits a chemokine-induced activity, such as macrophage recruitment, varying amounts of the agent are mixed with cells in the presence of a known chemoattractant. For example, a range of known concentrations of an agent, e.g., a chemokine peptide, is incubated with a defined number (e.g., 10^4 - […]) of human THP-1 monocyte cells in individual wells of the top compartment of a trans-well plate. Chemokine (such as MCP-1, MIP1α, IL8 or SDF-1α), at a concentration known to cause significant migration of THP-1 cells in the trans-well migration assay, is placed in the lower compartment (Figure 1). Cells are then incubated at 37°C for a period sufficient to allow migration, e.g., 4 hours. After incubation, the cells are gently removed from the top of the filter with a pipette, 20 µl of 20 mM EDTA in simple PBS is added into each top well, and incubated for 20 minutes at 4°C. The filter is carefully flushed with media using a gentle flow, and removed. A standard curve consisting of a two-fold dilution series of THP-1 cells (in 29 µl) is prepared to accurately quantify the number of cells that have migrated. Migrated cells are stained with 3 µl of MTT stock dye solution which is added directly into each well (5 mg/ml in RPMI-1640 without phenol red, Sigma Chemical Co.) and incubated at 37°C for 4 hours. The media is carefully aspirated from each well, and the converted dye is solubilized by 20 µl of DMSO. Absorbance of converted dye is measured at a wavelength of 595 nm using an ELISA plate reader. The number of migrated cells in each well is then determined by interpolation of the standard curve (see also Imai et al.,J. Biol. Chem., 272, 15036 (1997)).
# (§2) Any method suitable for counting cells can be used, for example, counting with a hemocytometer, incubation of the cells with MTT (see above), or FACS analysis. A negative control assay is also performed, using TGF-β or another non-chemokine chemoattractant (e.g., IL1β or TNFα). To assess whether the agent is cytotoxic, the same concentrations of agent are incubated with THP-1 cells. Agents which 1) are not cytotoxic at levels which inhibit migration, 2) are ineffective at inhibiting the negative control-induced migration, and 3) reduce or inhibit chemokine-induced THP-1 migration, are agents which fall within the scope of the invention.
# For this assay, THP-1 cells were maintained at a density of 4 × 10^5 cells per ml in RPMI-1640 supplemented with 10% fetal calf serum + 20 µM 2-mercaptoethanol. Chemotaxis was induced in a 96-well disposable chemotaxis chamber fitted with a 5 µM polycarbonate filter (PVP free, ChemoTX, Neuroprobe Inc., Cabin John). […] The framed filter was aligned with the holes in the corner of the filter frame and placed over the wells.
# (§3) Five × 10^4 THP-1 cells in 25 µl of RPMI-1640 were added to the upper compartment. Peptides were dissolved in Milli Q water and then serially diluted in culture medium. In most cases, the serially diluted peptides were added to the upper compartment of the chemotaxis chamber. The chamber was incubated at 37°C in a humidified atmosphere of 5% CO2 for 4 hours.
# After incubation, the cells were gently removed from the top of the filter with a pipette, 20 µl of 20 mM EDTA in PBS was added into each top well, and the mixture was incubated for 20 minutes at 4°C. The filter was then carefully flushed with media using a gentle flow, and removed. A standard curve was prepared to accurately quantify the number of THP-1 cells that had migrated. The curve was based on a two-fold dilution series of THP-1 cells (top standard 100,000 cells in 29 µl). Cells which had migrated, and in separate wells, the cells in the standards, were stained with 3 µl of MTT stock solution which was added directly into each well (5 mg/ml in RPMI 1640 without phenol red, Sigma Chemical Co.) and incubated at 37°C for 4 hours. The media was carefully aspirated from each well, and the converted dye was solubilized by 20 µl of DMSO. […]
# [2] = test system: MIP1α induced THP-1 migration; test: THP-1 trans-well migration assay, MIP1α as chemoattractant; conditions: inhibition of THP-1 migration; n.s./ns = not statistically significant
# Protocol: as §1
# (§4) For this assay, THP-1 cells were maintained at a density of 4 × 10^5 cells per ml in RPMI-1640 supplemented with 10% fetal calf serum + 20 µM 2-mercaptoethanol. Chemotaxis was induced in a 96-well disposable chemotaxis chamber fitted with a 5 µM polycarbonate filter (PVP free, ChemoTX, Neuroprobe Inc., Cabin John). Twenty-nine µl of chemoattractant (recombinant human chemokine; 50 ng/ml, i.e., 5.9 nM) or control (100 ng/ml TGFβ) was added to the lower compartment of each well. The framed filter was aligned with the holes in the corner of the filter frame and placed over the wells.
# as §3
# (§5) After incubation, the cells were gently removed from the top of the filter with a pipette, 20 µl of 20 mM EDTA in PBS was added into each top well, and the mixture was incubated for 20 minutes at 4°C. The filter was then carefully flushed with media using a gentle flow, and removed. A standard curve was prepared to accurately quantify the number of THP-1 cells that had migrated. The curve was based on a two-fold dilution series of THP-1 cells (top standard 100,000 cells in 29 µl). Cells which had migrated, and in separate wells, the cells in the standards, were stained with 3 µl of MTT stock solution which was added directly into each well (5 mg/ml in RPMI 1640 without phenol red, Sigma Chemical Co.) and incubated at 37°C for 4 hours. The media was carefully aspirated from each well, and the converted dye was solubilized by 20 µl of DMSO. Absorbance of converted dye was measured at a wavelength of 595 nm using an ELISA plate reader. The number of cells that had migrated in each well was determined by interpolation of the standard curve.
# (§6) To investigate the receptor specificity of peptide 3 inhibition, the ED50 was determined for peptide 3(1-12)[MCP-1] (SEQ ID NO:1) inhibition of THP-1 migration induced by chemokines which signal through different receptors than MCP-1 receptors. […]
# [3] = test system: SDF-1α induced THP-1 migration; test: THP-1 trans-well migration assay, SDF-1α as chemoattractant; conditions: inhibition of THP-1 migration; n.s./ns = not statistically significant
# Protocol: as §1, §4, §3, §5, §6
# [4] = test system: chemokine-induced THP-1 migration; test: THP-1 trans-well migration assay, several chemokines together (averages, selectivity, pan-chemokine statements); conditions: for CC specificity / selectivity ratio: Table 5: average ED50 versus SDF1 and IL8 divided by average ED50 versus MCP-1 and MIP1α; for Chemokine antagonist: active against migration induced by at least one of IL-8, SDF-1α; for Chemokine antagonist / effect on chemokine-induced THP-1 migration (in words): MCP-1, MIP1α; for effect on chemokine-induced THP-1 migration (in words): IL-8 and SDF1α; for Average ED50: average inhibitory ED50 for THP-1 migration induced by each of the chemokines
# Protocol: To determine whether an agent inhibits a chemokine-induced activity, such as macrophage recruitment, varying amounts of the agent are mixed with cells in the presence of a known chemoattractant. […] Chemokine (such as MCP-1, MIP1α, IL8 or SDF-1α), at a concentration known to cause significant migration of THP-1 cells in the trans-well migration assay, is placed in the lower compartment (Figure 1). Cells are then incubated at 37°C for a period sufficient to allow migration, e.g., 4 hours. After incubation, the cells are gently removed from the top of the filter with a pipette, 20 µl of 20 mM EDTA in simple PBS is added into each top well, and incubated for 20 minutes at 4°C. The filter is carefully flushed with media using a gentle flow, and removed. […] The media is carefully aspirated from each well, and the converted dye is solubilized by 20 µl of DMSO.
# Chemotaxis was induced in a 96-well disposable chemotaxis chamber fitted with a 5 µM polycarbonate filter (PVP free, ChemoTX, Neuroprobe Inc., Cabin John). […] The framed filter was aligned with the holes in the corner of the filter frame and placed over the wells.
# Peptides were dissolved in Milli Q water and then serially diluted in culture medium. In most cases, the serially diluted peptides were added to the upper compartment of the chemotaxis chamber. The chamber was incubated at 37°C in a humidified atmosphere of 5% CO2 for 4 hours.
# After incubation, the cells were gently removed from the top of the filter with a pipette, 20 µl of 20 mM EDTA in PBS was added into each top well, and the mixture was incubated for 20 minutes at 4°C. The filter was then carefully flushed with media using a gentle flow, and removed. […] The curve was based on a two-fold dilution series of THP-1 cells (top standard 100,000 cells in 29 µl). […] The media was carefully aspirated from each well, and the converted dye was solubilized by 20 µl of DMSO.
# Representative chemokines included […] ("CC"), MIP-1α and RANTES, and two alpha-chemokines ("CXC"), IL-8 and SDF-1α. Additionally, to determine the specificity ofpeptide 3(1-12)[MCP-1]
# The number of pluses is a qualitative indicating of the activity of each peptide in each assay.
# [5] = test system: IL8 induced THP-1 migration; test: THP-1 trans-well migration assay, IL8 as chemoattractant; conditions: for ED50 (µM) versus IL8: inhibition of THP-1 migration, n.s. = not statistically significant
# Protocol: as §1, §4, §3, §5, §6
# [6] = test system: TGFβ1 induced THP-1 migration; test: THP-1 trans-well migration assay, TGFβ1 as non-chemokine control chemoattractant; conditions: inhibition of THP-1 migration; n.s. = not statistically significant
# Protocol: as §2, §4, §3, §5
# To investigate the receptor specificity of peptide 3 inhibition, the ED50 was determined for peptide 3(1-12)[MCP-1] (SEQ ID NO:1) inhibition of THP-1 migration induced by chemokines which signal through different receptors than MCP-1 receptors. Representative chemokines included […] ("CC"), MIP-1α and RANTES, and two alpha-chemokines ("CXC"), IL-8 and SDF-1α. Additionally, to determine the specificity ofpeptide 3(1-12)[MCP-1] (SEQ ID NO:1) for chemokine receptors, TGF-beta was selected as a migration-inducing agent unrelated to the chemokine family, and as an agent which elicits a biological activity by signaling through identified, unrelated receptors.
molecule,measurement,setting,value
NC(=O)CC[C@H](NC(=O)CNC(=O)[C@@H](N)Cc1c[nH]c2ccccc12)C(=O)O [WGQ] (H-Trp-Gly-Gln-OH),ED50 (µM) versus MCP-1,[1],about 1.75 µM
DYFETSSQCSKPGV [Pep2[MIP1α]],ED50 (µM) versus MCP-1,[1],ns
same,ED50 (µM) versus MIP1α,[2],ns
same,ED50 (µM) versus SDF-1α,[3],ns
NCCCC[C@H](N)C(=O)N[C@@H](CCC(=O)O)C(=O)N[C@@H](CC(N)=O)C(=O)O [KEN] (H-Lys-Glu-Asn-OH),% inhibition at 100 µM versus MCP-1,"[1]; THP-1 migration, agent at 100 µM with the cells, n.s. or dash = no statistically significant inhibition",21 ± 2%
same,"ED50 for inhibition of the one chemokine the tripeptide is specific for (column AVERAGE ED50, footnote f)",[4],0.1-10^f µM
same,CC specificity / selectivity ratio,[4],< 0.1
same,% inhibition at 100 µM versus IL8,"[5]; THP-1 migration, agent at 100 µM, n.s. or dash = no statistically significant inhibition",70 ± 4%
NCCCC[C@H](NC(=O)[C@H](CC(N)=O)NC(=O)[C@@H](N)CCCCN)C(=O)O [KNK] (H-Lys-Asn-Lys-OH),Chemokine antagonist,[4],+++
HLKILNTPNCALQIV [Pep2[SDF1]],ED50 (µM) versus MCP-1,[1],10 µM
same,ED50 (µM) versus MIP1α,[2],40 µM
same,ED50 (µM) versus SDF-1α,[3],7 µM
"C[C@@H](O)[C@H](N)C(=O)N[C@H](C(=O)N[C@H](C(=O)O)[C@@H](C)O)[C@@H](C)O [TTT, reference compound] (H-Thr-Thr-Thr-OH)",effect on chemokine-induced THP-1 migration (in words),[4],None of these significantly inhibited
CC[C@H](C)[C@H](NC(=O)[C@@H](N)Cc1c[nH]c2ccccc12)C(=O)N[C@@H](CCC(N)=O)C(=O)O [WIQ] (H-Trp-Ile-Gln-OH),CC specificity / selectivity ratio,[4],1.0
same,Average ED50,[4],2 µM
C[C@H](NC(=O)[C@@H](N)CCCCN)C(=O)N[C@@H](CCCCN)C(=O)O [KAK] (H-Lys-Ala-Lys-OH),Chemokine antagonist,[4],+
"N=C(N)NCCC[C@H](N)C(=O)NCC(=O)N[C@@H](CC(=O)O)C(=O)O [RGD, reference compound]",effect on chemokine-induced THP-1 migration (in words),[4],None of these significantly inhibited
"N=C(N)NCCC[C@H](NC(=O)CNC(=O)CN)C(=O)O [GGR, reference compound]",effect on chemokine-induced THP-1 migration (in words),[4],None of these significantly inhibited
"CC(C)[C@H](N)C(=O)N[C@@H](CCC(=O)O)C(=O)O [VE, reference compound] (H-Val-Glu-OH)",effect on chemokine-induced THP-1 migration (in words),[4],None of these significantly inhibited
N[C@@H](CO)C(=O)N[C@@H](CCC(=O)O)C(=O)N[C@@H](CCC(=O)O)C(=O)O [SEE] (H-Ser-Glu-Glu-OH),ED50 (µM) versus MCP-1,[1],n.s.
same,ED50 (µM) versus TGFβ1,[6],n.s.
same,ED50 (µM) versus MIP1α,[2],6 µM
same,ED50 (µM) versus SDF-1α,[3],n.s.
same,ED50 (µM) versus IL8,[5],n.s.
"EICADP [Peptide 3[1-6], EICADP]",ED50 (µM) versus MCP-1,[1],33 µM
same,ED50 (µM) versus TGFβ1,[6],n.s.
same,ED50 (µM) versus MIP1α,[2],25 µM
same,ED50 (µM) versus SDF-1α,[3],19 µM
same,ED50 (µM) versus IL8,[5],17 µM
CC(C)[C@H]1NC(=O)[C@@H](CCC(N)=O)NC(=O)[C@H](N)CSSC[C@H](C(=O)O)NC(=O)[C@@H](C)NC(=O)[C@@H](CC(=O)O)NC(=O)[C@H]2CCCN2C(=O)[C@@H](CCCCN)NC(=O)[C@@H](CCC(N)=O)NC(=O)[C@@H](CCCCN)NC(=O)[C@@H](Cc2c[nH]c3ccccc23)NC1=O [CRD-Cys13pep3[3-12]] (H-[dC][dQ][dV][dW][dK][dQ][dK][dP][dD][dA][dC]-OH; disulfide 1-11),Average ED50,[4],0.8 µM
